Test results from PubChem BioAssay AID1508623 (National Center for Advancing Translational Sciences (NCATS), 2021).
About 450 (0.94%) of roughly 48,000 compounds were called active. Roughly 19% stayed inconclusive and do not appear here. The call rests on the fitted dose curve; in most records, active means well fitted inhibition curve with a large enough effect; inconclusive means small, poorly fitted or top-dose-only effect; inactive means no such curve, though single readings can be large or run the other way. Some of the results follow.

Test: Primary qHTS for Identification of Small Molecule Inhibitors of Huntingtin Promoter Activity; further: nearly all actives have a fitted effect of over 50% in size
Details: HEK293 HTT promoter firefly luciferase reporter (activity 0% = vehicle and -100% = no light), 24 h; series mostly up to 57.5 µM; activity change, negative = inhibition: at the top concentration
From the text: Assay Provider: Russell L. Margolis M.D.
Department Neurology, Johns Hopkins University School of Medicine, Baltimore, MD
Huntington's Disease (HD) is a neurodegenerative disorder caused by a CAG repeat expansion in exon 1 of huntingtin (HTT). While there are currently no disease-modifying treatments for HD, recent efforts have focused on development of nucleotide-based therapeutics to lower HTT expression. As an alternative to siRNA or oligonucleotide methods, we hypothesized that suppression of HTT expression might be accomplished by small molecules that either (1) directly decrease HTT expression by suppressing HTT promoter activity or (2) indirectly decrease HTT expression by increasing the promoter activity of HTT-AS, the gene antisense to HTT that appears to inhibit expression of HTT.
We developed and employed a high throughput screen for modifiers of HTT and HTT-AS promoter activity using luminescent reporter HEK293 cells; of the 52,041 compounds tested, we identified 898 replicable hits. We used a rigorous stepwise approach to assess compound toxicity and the capacity of the compounds to specifically lower huntingtin protein in 5 different cell lines, including HEK293 cells, HD lymphoblastoid cells, mouse primary neurons, HD iPSCs differentiated into cortical-like neurons, and HD hESCs. We found no compounds which were able to lower huntingtin without lowering cell viability in all assays, though the potential efficacy of a few compounds at non-toxic doses could not be excluded.
SEQUENCE No. (1, 2, 3, etc.); […] (e.g., Cells, Incubation, Reagent, etc.); VALUE and DESCRIPTION.
1; Reagent; 4 uL; 2,500 Hek293 luciferase reporter cells per wells
3; Compound; 23 nL; Control inhibitor / compound library
5; Reagent; 2.5 uL; Firefly Luc reagent; Dual-Glo Luciferase Reporter Assay System (Promega)
6; Time; 10 min; room temperature incubation
7; Detection; Luminescence; FLuc
NOTES (numbers refer to sequence above)
1; High-throughput screening, measuring luminescence from a Hek293 luciferase reporter, was performed in 1,536 well white-walled tissue-culture treated plates. 2,500 cells were plated in 4 µL of Opti-MEM per well using a Multidrop Combi Reagent Dispenser (ThermoFisher).
2; Assay plates were cultured for 24 hours.
3; Control inhibitor (PTC124; final concentration of 50 uM) and compound library (at final concentrations of 460 nM - 57.5 uM) were added to the assay plate using the Kalypsis Pintool Robotic System equipped with 1536 pinheads.
4; Cells were then incubated for 24 hours at 37 degrees C prior to luminescence measurements.
5; In all cases, luminescence was measured using the Dual-Glo Luciferase Reporter Assay System (Promega) following the manufacturer's instructions.
6; Room temperature incubation.
7; Luminescence signal was obtained using the PerkinElmer ViewLux plate reader. Results were normalized to vehicle control (0% activity) and zero RLU (-100% activity).

Activity change, negative = inhibition, inactive:
Cc1cc(C)cc(N(CC(=O)NCc2ccccc2Cl)S(=O)(=O)c2c(C)[nH]c(=O)[nH]c2=O)c1 -12%
Cc1noc(Cn2c(=O)c3ccccc3n(CC(=O)Nc3ccc(C(C)C)cc3)c2=O)n1 -20.8%
CCN(CC)CCCNC(=O)CN1C(=O)COc2ccc(S(=O)(=O)N3CCC(C)CC3)cc21 -12.5%
CC(Nc1oc(-c2ccc(COc3ccc(Cl)cc3)o2)nc1C#N)c1ccccc1 (centres undefined) -17%
CCN(CC)c1ccc(NC(=O)CN2C(=O)c3cccnc3Oc3ccc(Cl)cc32)c(C)c1 3.71%
O=C(NCc1ccccc1)c1ccc2c(c1)nc1n2CCOC1 22%
COCCNC(=O)CSc1nnc2[nH]c(=O)cc(C)n12 -6.73%
C[N+]1(C)CCCC(OC(=O)C(O)(c2ccccc2)c2ccccc2)C1 (centres undefined) -9%
CCOC(=O)Cn1c(=O)n(CC2CCCO2)c2nc(-c3c(F)cccc3Cl)nc(C(N)=O)c21 (centres undefined) -16.8%
CCn1c(=O)c2sccc2n2c(CCCC(=O)Nc3ccc(OC)c(OC)c3)nnc12 -15.1%
CCOC(=O)c1ccc(NC(=O)c2cc3c([nH]c2=O)CC(c2ccccc2)CC3=O)cc1 (centres undefined) -0.278%
N#C/C(=C1\SCC(c2ccccc2Cl)S1)n1ccnc1 (centres undefined) -7.02%
COc1ccc(-n2cc(-c3ccc4c(c3)OCO4)n(CC(=O)Nc3cccc(C)c3)c2=O)cc1 -13.2%
CCCCC1CCC(CCCC(C)CCC(=O)O)CC1 (centres undefined) -27.4%
COc1cccc(-c2n[nH]c3c2C(c2ccccn2)N(C)C3=O)c1 (centres undefined) -0.162%
O=C(CC1N=C2c3ccccc3N=C(SCC(=O)Nc3ccc(F)cc3)N2C1=O)NCc1ccc2c(c1)OCO2 (centres undefined) 1.98%
Cc1ccccc1Cn1c(SCc2ccc(C(=O)NCCc3ccccc3)cc2)nc2ccncc21 -20.2%
Cc1cc(C)n(C(C)CC(=O)Nc2ccc(C)c(F)c2)n1 (centres undefined) -7.38%
CSc1ncc(Cl)c(C(=O)N(Cc2ccc(C(C)C)cc2)C2CCS(=O)(=O)C2)n1 (centres undefined) -27.3%
CC(C)CCNc1ncnc2c1cnn2-c1cccc(Cl)c1 -17.5%
Cc1ccccc1C(c1c(C)n(C)n(-c2ccccc2)c1=O)c1c(C)n(C)n(-c2ccccc2)c1=O -8.95%
Cc1ccc(-n2c(SCC(=O)Nc3c(C)cccc3C)nc(O)c(C)c2=O)cc1 -10.2%
CCC1CN(C(=O)N2CCC(C(=O)NCc3ccco3)CC2)c2ccccc2O1 (centres undefined) 8.05%
COCCNC(=O)C(=O)NCC(c1cccnc1)N1CCN(c2ccccc2)CC1 (centres undefined) -22.9%
CCOc1ccc2c(c1)c(=O)c(C(=O)c1ccc(C)cc1)cn2Cc1ccccc1OC -31.2%
CO[C@@]1(NC(=O)Cc2cccs2)C(=O)N2C(C(=O)O)=C(COC(N)=O)CS[C@@H]21 4.26%
CCOc1ccccc1NC(=O)CN1C(=O)C2(SCC(=O)N2c2ccc(C)cc2)c2ccccc21 (centres undefined) -25.2%
CC(=O)c1cccc(NC(=O)N2CCC(CN3CCCCC3)CC2)c1 -8.1%
CC(C)c1ccc(NC(=O)Cn2c(=O)n(Cc3nc(-c4ccccc4)no3)c(=O)c3cc4c(cc32)OCO4)cc1 9.32%
N#CC(=Cc1ccc(O)c(O)c1)C(=O)NCc1ccccc1 6.44%
Cc1cc(C)c(CN2C(=O)c3ccccc3S(=O)(=O)c3ccc(C(=O)OCC4CCCO4)cc32)c(C)c1 (centres undefined) -16.7%
Cc1ccc(-n2ncc3c(=O)n(Cc4ccccc4C)cnc32)cc1C -10.4%
CCCN(Cc1cccs1)C(=O)Nc1ccc(F)c(Cl)c1 -0.27%
COc1cc(Cl)c(NC(=O)C(NS(=O)(=O)c2cccs2)C(C)C)c(OC)c1 (centres undefined) -13.5%
CS(=O)(=O)N1CCc2cc(C(=O)Nc3ccc(S(N)(=O)=O)cc3)ccc21 -14.9%
CC(=O)c1ccc2c(c1)N(CCCN1CCC(CCO)CC1)c1ccccc1S2 -1%
Cc1cccc(C(=O)OCc2cc(=O)n3nc(-c4cccs4)sc3n2)c1 -11.1%
CCCSc1nnc2n(-c3cccc(C)c3)c(=O)c3c4c(sc3n12)CCCC4 -3.04%
Cc1ccc(C)c(NC(=O)Cn2c(=O)n(Cc3ccc4c(c3)OCO4)c(=O)c3ccccc32)c1 -9.45%
Cc1ccc(-n2ncc(C(=O)NCCCN3CCN(C)CC3)c2C2CCN(C(=O)OC(C)(C)C)CC2)c(C)c1 -7.43%
CC(C)(C)OC(=O)N1CCC(c2c(C(=O)N3CCCCC3)cnn2-c2ccc(F)cc2F)CC1 -14.2%
O=C(CCn1cnc2onc(-c3ccc(F)cc3)c2c1=O)N1CCN(c2ccccc2F)CC1 2.21%
Cc1ccc2c(CC(=O)N(Cc3cccc(Cl)c3)C3CCS(=O)(=O)C3)coc2c1 (centres undefined) -31.7%
CNS(=O)(=O)c1cn(CC(=O)N2CCN(c3ccccc3OC)CC2)cc1S(=O)(=O)NC 5.37%
CCOC(=O)C1CCCN(C(=O)c2ccc(NC(=O)c3nsc4ccccc34)cc2)C1 (centres undefined) 14.6%
COC(=O)c1ccccc1NC(=O)Cn1c(=O)cc(C)c2c(C)nn(-c3cccc(Cl)c3C)c21 3.34%
COc1ccc(Cl)cc1NC(=O)Cn1cnc2sc(C)c(S(=O)(=O)N3CCN(c4ccccc4OC)CC3)c2c1=O -4.81%
O=C(CC1Nc2cccc3cccc(c23)NC1=O)Nc1ccc(F)cc1 (centres undefined) 0%
N#Cc1cccc(NC(=O)CCNS(=O)(=O)c2ccc3c(c2)CCN3C(=O)C2CC2)c1 -6.05%
O=C(Nc1nnc(S(=O)(=O)N2CCc3ccccc32)s1)c1ccccc1Cl -25.1%
CCOC(=O)c1c(C)[nH]c(CCC(=O)NCCCN2CCN(c3ccccc3F)CC2)c1C -14.2%
Cc1cc(C)cc(-n2ccnc2SCC(=O)Nc2nc3ccc(C)cc3s2)c1 -1.51%
COc1ccc(-c2nc(Cn3c(=O)cc(C)c4c(C)nn(-c5ccccc5)c43)c(C)o2)c(OC)c1 -17.3%
CN(C)c1ccc(CNC(=O)Cn2ccc3cc(S(=O)(=O)N4CCCCCC4)ccc32)cc1 -27.5%
c1coc(-c2nc3ccccn3c2Nc2ccc3c(c2)OCCO3)c1 -7.67%
CCOc1ccc(NC(=O)CCS(=O)(=O)c2ccc3nc(C)sc3c2)cc1 -1.46%
Cc1ccc(Cn2c(SCc3ccc(C(=O)NCCc4ccccc4)cc3)nc3ccncc32)cc1 -23.9%
COc1ccc(-n2c(=O)c3sc4ccccc4c3n(CC(=O)N3CCCC3)c2=O)cc1 -9.51%
CCn1cc(S(=O)(=O)c2cccc(C)c2)c(=O)c2cc(F)c(N3CCCCC3C)cc21 (centres undefined) -10.9%
COc1ccc(-c2cn3c(n2)sc2cc(C(=O)Nc4ccccc4F)ccc23)cc1 -0.363%
CCc1ccc2occ(CC(=O)Nc3c(C(=O)Nc4ccc(Cl)cc4)oc4ccccc34)c2c1 -11%
CN(C)CCNC(=O)c1ccc2nc(CCc3ccccc3)oc2c1 8.04%
Cc1ccc(CNC(=O)C(=O)NCC(c2cccs2)S(=O)(=O)c2cccs2)cc1 (centres undefined) -28.3%
CCSc1nc2c([nH]c3ccccc32)c(=O)n1-c1ccc(OC)cc1 0.33%
O=C(O)CCCC(=O)N1CCc2cc(S(=O)(=O)NCc3ccccc3)ccc21 -1.89%
Cc1cccc(NC(=O)CCNS(=O)(=O)c2ccc3c(c2)CCCC(=O)N3)c1C -11.4%
CC1CCCN(c2ncnc3c2nc2n3CCCCC2)C1 (centres undefined) 36.2%
CN(C)c1ccc(CNc2nc(-c3ccco3)nn2S(C)(=O)=O)cc1 36.8%
CN(C)c1ccc(NC(=O)Cn2c(SCc3ccc(F)cc3)nc3cccnc32)cc1 -19.6%
Cc1ccccc1Cn1c(=O)n(CCCCC(=O)NCCc2ccccc2)c(=O)c2ccccc21 1.55%
CCc1ccc(NC(=O)CSC2=Nc3ccccc3C3=NC(CC(=O)NCc4ccc5c(c4)OCO5)C(=O)N23)cc1 (centres undefined) 0%
CCCC(=O)Nc1ccc(NC(=O)c2sc3ccccc3c2Cl)cc1 -13.6%
COCCn1c(SCC(=O)c2ccccc2)nc2cc(C(=O)NC3CCCC3)ccc2c1=O -4.2%
COc1ccc(NC(=O)CN(c2cccc(C)c2C)S(=O)(=O)c2ccccc2)cc1OC -19.9%
CC(=O)c1cccc(NC(=O)c2noc3c2CC(C)CC3)c1 (centres undefined) 49.6%
CCOC(=O)CSC1=Nc2ccccc2C2=NC(CCC(=O)NCc3ccccc3)C(=O)N12 (centres undefined) -12.2%
COc1ccc(C(=O)N2CCN(C(=O)COc3ccc(Br)cc3)CC2)cc1OC -12.8%
CCCCN(C)CCCNC(=O)Cn1nc(CC)n2c(cc3sc(C)cc32)c1=O -2.81%
COc1cc2c(=O)c(S(=O)(=O)c3ccc(C)cc3)cn(Cc3cccc(C)c3)c2cc1OC -19.2%
CC1CN(C(=O)N2CCC(C(=O)NCCC3=CCCCC3)CC2)c2ccccc2O1 (centres undefined) 0.0202%
O=C(CSc1nnc(-c2cccs2)o1)Oc1ccc(Cl)cc1 -18.5%
CCCCNC(=O)C1CCCN(c2nnc(C)c3c(C)n(-c4ccc(Cl)cc4)nc23)C1 (centres undefined) -20.2%
CC(C)c1ccc(S(=O)(=O)Nc2ccc(O)c(Sc3nc4ccccc4s3)c2)cc1 -26.3%
CSc1cccc(NC(=O)C2CCN(S(=O)(=O)c3ccc4[nH]c(=O)ccc4c3)CC2)c1 -9.27%
CCOC(=O)C1(C)C=C(Nc2ccc(C)cc2)C(=O)N1c1ccccc1 (centres undefined) -4.4%
CCN(CC)CCN(C(=O)c1ccc(C(=O)OC)cc1)c1nc2ccc(Cl)cc2s1 -23.4%
CCOc1ccccc1NC(=O)c1ccc2c(c1)CCCN2S(C)(=O)=O 1.14%
COCCNc1cc(N2CCN(C3CCCCC3)CC2)c2noc3c2c1C(=O)c1ccccc1-3 -1.25%
O=C(C1COc2ccccc2O1)N(Cc1cccnc1)c1nc2c(F)cc(F)cc2s1 (centres undefined) -3.11%
O=C(Nc1ccc2nn(-c3ccc(F)cc3)nc2c1)c1cccc2c(Cl)cccc12 -17.2%
Cc1ccc(Cl)cc1N1CCN(C(=O)c2c(C)oc3ncnc(N4CCOCC4)c23)CC1 -12.8%
COC(=O)c1cccc(Nc2c(-c3cc(Br)ccc3O)nc3nc[nH]n23)c1 -7.14%
Cc1cc(C)cc(OCC(=O)Nc2ccc(-c3nc4ncccc4o3)cc2C)c1 -0.323%
CCOc1ccccc1NC(=O)c1c(NCc2ccc(OC)c(OC)c2OC)sc2c1CCC(C)C2 (centres undefined) -15.5%
